# According to PubChem BioAssay AID686970 (National Center for Advancing Translational Sciences (NCATS), 2013):
# Out of some 360,000 compounds screened, about 6,000 (1.7%) were called active. This list was built around the results that the source calls inconclusive (neither active nor inactive); the mix of calls is not that of the screen. Calls come from the whole dose curve; as a rule, active = well fitted cell-killing curve with a large enough effect; inconclusive = small, poorly fitted or top-dose-only effect, or effect the other way; inactive = flat fitted curve, though single readings scatter. No potency is given beside an inconclusive call; the fits are too rough.
# Test: qHTS for induction of synthetic lethality in tumor cells producing 2HG: qHTS for the HT-1080-NT fibrosarcoma cell line;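 note: NT is the 2HG producing partner of a matched IDH1 knockdown line; nearly all actives have a fitted effect of over 55% in size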;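 for activity, negative = less viability: 0% = DMSO-treated cells and -100% = media-only wells without cells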
# Conditions: HT-1080-NT fibrosarcoma viability, CellTiter-Glo ATP luminescence, 48 h; activity, negative = less viability: at 46.1 µM (top of the series) unless noted
# Method in brief: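 A 48-hour cytotoxicity screen used HT-1080-NT cells plated 2 hours before compound delivery. ATP-based CellTiter-Glo luminescence measured viability, normalized to DMSO and no-cell controls.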
# Potency is the fitted concentration of half-maximal effect; tags give direction and shape of the fitted curve.
Structure (SMILES),Potency,"activity, negative = less viability"
COc1ccccc1NC(=O)C(=O)N1N=C(C(C)C)CC1(O)C(F)(F)F (stereo not drawn),"inconclusive [cytotoxic, single point]",–
Cc1cc(C2=NNC(=NC3CC3)SC2)c(C)n1-c1ccccc1F,"inconclusive [cytotoxic, single point]",–
CCc1nc2ccc(C(=O)Nc3cc(-c4ccccc4)ccc3OC)cn2c1N(C)CCC(C)C,"inconclusive [cytotoxic, single point]",–
COc1ccc(NC(=S)Nc2ccccc2)cn1,"inconclusive [rising, single point]",–
CC(=O)N1CCc2c(sc(NC(=O)C3CCCCC3)c2C(N)=O)C1,–,inactive: 14.2%
COC(=O)[C@@]12C[C@@H](CC(=O)NCc3cccs3)C(=O)N(Cc3ccc4c(c3)OCO4)C1=CCC(C)(C)C2,"inconclusive [cytotoxic, single point]",–
CCOc1c(Cl)cc(CNC(C)(C)CC(C)(C)C)cc1OC,"inconclusive [cytotoxic, single point]",–
CCCCNC(=O)C1(C)CCCCN1C(=O)c1c(Cl)cccc1Cl (stereo not drawn),"inconclusive [rising, single point]",–
O=[N+]([O-])c1cc(C(F)(F)F)cc([N+](=O)[O-])c1NCCNC(=S)Nc1ccc(Cl)c(Cl)c1,active: 16.4 µM,–
COc1ccc(N2CCN(c3oc(-c4ccco4)nc3C#N)CC2)cc1,–,inactive: 9.88%
COc1cc(C(=O)N[C@H](C(=O)NC(C)C23CC4CC(CC(C4)C2)C3)C(C)C)cc(OC)c1OC (stereo partly drawn),"inconclusive [cytotoxic, single point]",–
CCCCSc1nc(C)cc(SCC(=O)N/N=C/c2cccc(OC)c2O)n1,–,inconclusive: -36.5% [cytotoxic]
Cc1nnsc1C(=O)N/N=C/c1ccc2ccccc2c1O,active: 4.11 µM,–
CC1(C(=O)NCc2cccs2)Cc2c(-c3ccc4c(c3)OCO4)ccnc2O1 (stereo not drawn),"inconclusive [cytotoxic, full curve]",–
COc1ccc(C(=O)Nc2ccccc2SCc2cc(=O)n3nc(C)sc3n2)cc1OC,"inconclusive [rising, partial curve]",–
O=C(CSc1nc2ccccc2s1)CSc1nc2ccccc2s1,"inconclusive [cytotoxic, single point]",–
Nc1c(Cl)ncnc1N/N=C/c1ccc2ccccc2n1,"inconclusive [cytotoxic, full curve]",–
CNc1cc(CSC)nc(SCc2ccc(Cl)cc2Cl)n1,"inconclusive [cytotoxic, single point]",–
COc1cc([N+](=O)[O-])ccc1NC(=S)N1CCOCC1,"inconclusive [cytotoxic, single point]",–
CC(C)C(=O)NC(c1ccccc1)c1cc([N+](=O)[O-])c2cccnc2c1O (stereo not drawn),"inconclusive [cytotoxic, partial curve]",–
Cc1ccc2nc(SCC(=O)Nc3ccccc3N3CCOCC3)c(C#N)cc2c1,"inconclusive [cytotoxic, single point]",–
O=S(=O)(c1ccccc1)N1CCN(Cc2ccccc2)CC1,–,inactive: 4.77%

Structure (SMILES),Potency,"activity, negative = less viability"
CCN(CC)c1ccc(C(NC(=O)C(C)C)c2ccc3cccnc3c2O)cc1 (stereo not drawn),"inconclusive [cytotoxic, full curve]",–
NC(Cc1ccc(C(F)(F)F)cc1)c1csc(NC(=O)Nc2ccccc2)n1 (stereo not drawn),"inconclusive [cytotoxic, partial curve, poor fit]",–
OCC1OC(n2ccc3c2ncn2ncnc32)C(O)C1O (stereo not drawn),active: 0.58 µM,–
O=C1[C@@H]2C(c3ccccc3Cl)=NO[C@@H]2C(=O)N1Cc1ccccc1,"inconclusive [rising, partial curve]",–
O=C(Cn1c(-c2cscn2)nc2ccccc21)Nc1cc(F)ccc1F,"inconclusive [cytotoxic, single point]",–
COc1cccc(C2=NOC(C(=O)NCc3ccccc3)C2)c1 (stereo not drawn),"inconclusive [cytotoxic, partial curve]",–
CCC(C)Sc1nc2c(c(=O)[nH]c(=O)n2C)n1CCc1ccccc1 (stereo not drawn),–,inactive: 3.32%
COc1cccc(N(C(=O)c2nc3nccc(C)n3n2)c2nc3ccccc3s2)c1,"inconclusive [cytotoxic, single point]",–
C=CCN1CCN(C(=O)c2c(-c3ccccc3)noc2C)CC1,"inconclusive [rising, single point]",–
Oc1ccc(/C=N/Nc2nc(N3CCCCCC3)nc(N3CCCCCC3)n2)c(O)c1,"inconclusive [cytotoxic, single point]",–
O=C1CN(C(=O)c2ccc(Cl)c(S(=O)(=O)N3CCc4ccccc43)c2)c2ccccc2N1,active: 7.31 µM,–
CC(C)[n+]1ccn(C2=C([O-])c3ccccc3C(=O)/C2=N\S(=O)(=O)c2ccccc2)c1,active: 23.1 µM,–
COc1ccc(NC(=O)/C=C/c2cccc(Br)c2)cn1,"inconclusive [cytotoxic, single point]",–
C=CCc1cccc(/C=N/NC(=O)c2ccccc2OC)c1O,"inconclusive [cytotoxic, partial curve]",–
CC(C)(C)C1CCc2c(sc3nc(SCC(=O)O)nc(N)c23)C1 (stereo not drawn),"inconclusive [cytotoxic, single point]",–
C#CCNC(=O)C[C@@H]1C[C@@]2(C(=O)OC)CC(C)(C)CC=C2N(Cc2cccc3ccccc23)C1=O,"inconclusive [cytotoxic, single point]",–
O=C1OCC2=C1C(c1ccc(F)cc1)c1cc3c(cc1N2)OCCO3 (stereo not drawn),active: 0.184 µM,–
O=C(CCNS(=O)(=O)c1ccc(F)c(Cl)c1)NCc1ccccc1F,–,inactive: 6.56%
Cc1nc(C(F)(F)F)ccc1C(=O)Nc1ccc2ccccc2n1,–,inactive: -6.11%
Cc1ccc(Cc2c(-c3ccc(F)cc3)nc3c(C)cc(Br)cn23)cc1,"inconclusive [cytotoxic, single point]",–
Cc1ccc(S(=O)(=O)N2[C@@H](c3ccc4c(c3)OCO4)C(C(=O)O)=C[C@H]2CC2CCCC2)cc1,–,inactive: -2.24%
